This is an account of results in PubChem BioAssay AID1346428 (National Center for Advancing Translational Sciences (NCATS), 2018).

In all, about 48,000 compounds went through this assay and about 1,200 (2.5%) were called active. Not shown: some 2% with an inconclusive outcome.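 The calls were made as follows: active = activation of at least 60% and not above a set upper limit (about 1 call in 100 departs from these limits); inconclusive = activation of 40% to 60%, or above that upper limit; inactive = activation under 40%.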 Some of the results follow.

In the test the target is Probable G-protein coupled receptor 32 (Homo sapiens) (UniProt O75388). In words: qHTS for Agonists of Human Resolvin D1 Receptor DRV1. Also: 0% is about no effect. The following applies: CHO-K1 GPR32 beta-arrestin PathHunter luminescence, 90 min; at 76.9 µM; stronger effect = higher value; zero percent set by DMSO-only wells. The procedure, abridged: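 Agonism was scored as beta-arrestin recruitment to ProLink-fused GPR32 in stably transfected CHO-K1 cells, giving a chemiluminescent beta-Gal signal; compounds were incubated 90 min at 37 °C.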
UniProt O75388, sequence (O75388 whole entry, looked up, the tested form may be a part): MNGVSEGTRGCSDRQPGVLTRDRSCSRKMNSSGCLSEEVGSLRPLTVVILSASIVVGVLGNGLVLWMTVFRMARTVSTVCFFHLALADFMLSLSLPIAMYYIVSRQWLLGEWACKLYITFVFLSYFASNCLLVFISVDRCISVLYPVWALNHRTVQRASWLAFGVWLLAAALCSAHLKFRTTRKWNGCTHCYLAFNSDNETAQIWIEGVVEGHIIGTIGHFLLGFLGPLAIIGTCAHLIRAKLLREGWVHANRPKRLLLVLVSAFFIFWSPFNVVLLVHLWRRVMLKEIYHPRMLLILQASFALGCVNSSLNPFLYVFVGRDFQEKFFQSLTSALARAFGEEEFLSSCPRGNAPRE
(In qHTS, concentration-response curves come from the screen itself.)
`O=C1C(c2ccc(F)cc2)N(CCc2ccccc2)C(=O)CN1C1CCCCCC1` (centres undefined): the activation was inactive: -4.43%.

On to `Cc1ccc2[nH]c(=O)c3cc(C(=O)NCCCN4CCC(C)CC4)sc3c2c1`, for which the activation is inactive: -2.84%.

For the molecule `CCOC(=O)c1c(C)[nH]c(C)c1S(=O)(=O)N1CCC(C(=O)NCc2ccccc2Cl)CC1`, the activation was inactive: 5.98%.

For the molecule `COc1ccc(C)cc1N(C)C(=O)CCc1nc(-c2ccccc2F)no1`, the activation was inactive: -6.05%.

Turning to `Cc1ccc(Cl)cc1NC(=O)CN1C(=O)CCc2ccccc21`, the activation is inactive: -5.15%.

As to `CCCCNc1oc(-c2ccc(COc3ccc(OC)cc3)o2)nc1C#N`, the activation is inactive: -12.1%.

`CCOC(=O)C(Cc1c[nH]c2ccccc12)NC(=O)COc1ccc(CC)cc1` (centres undefined): the activation is inactive: 0.694%.

`Cc1cc(NC(=O)CN2CCC(C)CC2)nc2c1c(=O)oc1ccccc12`: the activation is inactive: -10.6%.

For the molecule `COc1ccc(CC(=O)NCc2nc3cccnc3n2Cc2ccccc2)cc1`, the activation was inactive: -15.7%.

On to `COC(=O)c1ccccc1NC(=O)CCCn1c(=O)c2cccn2c2cccnc21`, for which the activation was inactive: 2.9%.

With `CN(C)c1ccc(Nc2ncnc3sc4c(c23)CCCC4)cc1`, the activation was inactive: 3.57%.

For `CCc1cccc(C)c1NC(=O)Cn1nc(C)c2nn(-c3ccc(Cl)cc3)c(C)c2c1=O`, the activation is inactive: -16.5%.

As to `COc1ccc(/C=C/C(=O)Nc2ccc3nc(N4CCC(C)CC4)cc(C)c3c2)cc1`, the activation was inactive: 24.3%.

Regarding `CCCCCCCCCCCCCCCC[n+]1ccccc1`, the activation was inactive: 12.3%.

Consider `CCC1Oc2ccc(Cl)cc2N(CC(=O)NCCc2ccc(Cl)cc2)C1=O` (centres undefined), for which the activation was inactive: 7.44%.

`CCCN1Cc2cccc(C(=O)Nc3cccc(C(=O)OCC)c3)c2C1=O`: the activation was inactive: -5.04%.

As to `COc1ccccc1C(=O)Nc1ccc2oc(-c3cccc4c(Br)cccc34)nc2c1`, the activation was inactive: -4.06%.

For `COc1ccc2c(c1)cc1c(=O)n(CC(=O)NC3CC3)nc(C)n12`, the activation was inactive: -0.977%.

Regarding `CCN(c1ccccc1)S(=O)(=O)c1c(-c2ccc(C)cc2)csc1C(=O)OC`, the activation was inactive: -29%.

Consider `O=[N+]([O-])c1cc(-c2nc(-c3ccccc3)no2)ccc1NC1CCCCC1`, for which the activation is inactive: -10.1%.

Turning to `O=C(Cc1csc2nc(-c3ccc(F)cc3)cn12)NCc1ccccc1`, the activation was inactive: -9.84%.

For `COc1ccccc1CNC(=O)CCn1c(=O)c2cccn2c2cccnc21`, the activation is inactive: -0.687%.

As for `COc1ccc(C2c3cc(OC)c(OC)cc3CC(=O)N2c2ccc(C)c(F)c2)cc1` (centres undefined), the activation is inactive: -11.9%.

`C=Cc1ccc(Cn2c(C)c(CNCc3ccccc3C)c(C(=O)O)c2C)cc1`: the activation was inactive: 26.5%.
